In patent US11000038B2, “Pyridone compounds and agricultural and horticultural fungicides containing the same as active ingredients” (priority 2017, dated 2021):

Legend:
[1] = tested on: grape downy mildew fungus (Plasmopara viticola); assay: Test Example G: grape downy mildew, spray treatment of grape plants; conditions: for Test G control value: grape downy mildew, 7 to 10 days after inoculation; for Test G control value class (grape downy mildew): 2.5 ml/pot, grape Neomuscat, 7 to 10 days from inoculation
[2] = tested on: wheat brown rust fungi (Puccinia recondita); assay: Test Example E: wheat brown rust, spray treatment of wheat plants; format: in vivo; conditions: for Test E control value: wheat brown rust; for Test E control value class (wheat brown rust): control value=100{1-(n/3)}
[3] = tested on: cabbage Alternaria sooty spot fungi (Alternaia brassicicola); assay: Test Example C: cabbage Alternaria sooty spot, spray treatment of cabbage plants; format: in vivo; conditions: for Test C control value: cabbage Alternaria sooty spot; for Test C control value class (cabbage Alternaria sooty spot): control value=100{1-(n/3)}
From the text: [Test Example C] Cabbage Alternaria Sooty Spot
Test plants (cabbage variety: Shikidori) were cultivated until the cotyledons extended after the sowing of seeds.
<Control Value> Control value=100{1−(n/3)}

[4] = tested on: gray mold fungi (Botrytis cinerea); assay: Test Example B: tomato gray mold, spray treatment of tomato plants; conditions: for Test B control value: tomato gray mold; for Test B control value class (tomato gray mold): control value=100{1-(n/3)}
[5] = tested on: barley powdery mildew fungi (Blumeria graminis f. sp. hordei); assay: Test Example D: barley powdery mildew, spray treatment of barley plants; conditions: for Test D control value: barley powdery mildew; for Test D control value class (barley powdery mildew): control value=100{1-(n/3)}
[6] = spray treatment of wheat plants
[7] = spray treatment of cabbage plants
[8] = spray treatment of tomato plants
[9] = spray treatment of barley plants

| Compound | Test G control value ([1]; 250 ppm spray (2.5 ml/pot)) | Test E control value [2, 6] | Test C control value [3, 7] | Test B control value [4, 8] | Test D control value [5, 9] | Test G control value ([1]; 250 ppm spray) | Test E control value ([2]; spray treatment) | Test C control value ([3]; spray treatment) | Test B control value ([4]; spray treatment) | Test D control value ([5]; spray treatment) | also measured |
| --- | --- | --- | --- | --- | --- | --- | --- | --- | --- | --- | --- |
| COc1cc(F)c(-c2c(Cl)c(=O)c(Br)cn2CC(C)(C)C)c(F)c1 [Compound 215] | L (L shows the control value of 50% or less) | H (H shows the control value of more than 50%) | H (H shows the control value of more than 50%) | H (H shows the control value of more than 50%) | L (L shows the control value of 50% or less) | – | – | – | – | – | – |
| O=c1c(Br)cn(-c2ccccc2)c(-c2ccc(F)cc2F)c1Br [Compound 470] | – | – | – | – | – | L (L shows the control value of 50% or less) | H (H shows the control value of more than 50%) | H (H shows the control value of more than 50%) | H (H shows the control value of more than 50%) | L (L shows the control value of 50% or less) | – |
| Cc1cn(C(C)C(C)C)c(-c2c(F)cc(F)cc2F)c(Cl)c1=O (stereo not shown) [Compound 135] | – | – | – | – | – | – | – | – | – | – | Test G control value class (grape downy mildew) ([1]; 250 ppm spray): L (L shows the control value of 50% or less); Test E control value class (wheat brown rust) [2, 6]: H (H shows the control value of more than 50%); Test C control value class (cabbage Alternaria sooty spot) [3, 7]: H (H shows the control value of more than 50%); Test B control value class (tomato gray mold) [4, 8]: H (H shows the control value of more than 50%); Test D control value class (barley powdery mildew) [5, 9]: H (H shows the control value of more than 50%) |
| CCc1c(-c2ccccc2)n(-c2ccccc2C)cc(C)c1=O [Compound 566] | – | – | – | – | – | L (L shows the control value of 50% or less) | H (H shows the control value of more than 50%) | H (H shows the control value of more than 50%) | H (H shows the control value of more than 50%) | H (H shows the control value of more than 50%) | – |
| Cc1cccc(-n2cc(C)c(=O)c(C)c2-c2c(F)cccc2F)c1C [Compound 478] | – | – | – | – | – | H (H shows the control value of more than 50%) | H (H shows the control value of more than 50%) | H (H shows the control value of more than 50%) | H (H shows the control value of more than 50%) | H (H shows the control value of more than 50%) | – |
| COc1cccc(-n2cc(Br)c(=O)c(Br)c2-c2c(F)cc(F)cc2F)c1C [Compound 367] | H (H shows the control value of more than 50%) | H (H shows the control value of more than 50%) | H (H shows the control value of more than 50%) | H (H shows the control value of more than 50%) | H (H shows the control value of more than 50%) | – | – | – | – | – | – |
| COc1cc(F)c(-c2c(Br)c(=O)c(Cl)cn2-c2cccnc2OC)c(F)c1 [Compound 39] | – | – | – | – | – | – | – | – | – | – | Test G control value class (grape downy mildew) ([1]; 250 ppm spray): H (H shows the control value of more than 50%); Test E control value class (wheat brown rust) [2, 6]: H (H shows the control value of more than 50%); Test C control value class (cabbage Alternaria sooty spot) [3, 7]: H (H shows the control value of more than 50%); Test B control value class (tomato gray mold) [4, 8]: H (H shows the control value of more than 50%); Test D control value class (barley powdery mildew) [5, 9]: H (H shows the control value of more than 50%) |
| Cc1cccc(F)c1-n1cc(Cl)c(=O)c(Br)c1-c1c(F)cc(F)cc1F [Compound 290] | L (L shows the control value of 50% or less) | H (H shows the control value of more than 50%) | H (H shows the control value of more than 50%) | H (H shows the control value of more than 50%) | L (L shows the control value of 50% or less) | – | – | – | – | – | – |
| Cc1c(F)cccc1-n1cc(C)c(=O)c(C)c1-c1c(F)cc(F)cc1F [Compound 437] | – | – | – | – | – | L (L shows the control value of 50% or less) | H (H shows the control value of more than 50%) | H (H shows the control value of more than 50%) | H (H shows the control value of more than 50%) | H (H shows the control value of more than 50%) | – |
| COc1cccc(-n2cc(C)c(=O)c(C)c2-c2c(F)cc(F)cc2F)c1C [Compound 481] | – | – | – | – | – | H (H shows the control value of more than 50%) | H (H shows the control value of more than 50%) | H (H shows the control value of more than 50%) | H (H shows the control value of more than 50%) | H (H shows the control value of more than 50%) | – |
| Cc1c(-n2cc(Br)c(=O)c(Br)c2-c2c(F)cc(F)cc2F)cccc1[N+](=O)[O-] [Compound 321] | L (L shows the control value of 50% or less) | H (H shows the control value of more than 50%) | H (H shows the control value of more than 50%) | L (L shows the control value of 50% or less) | L (L shows the control value of 50% or less) | – | – | – | – | – | – |
| Cc1ccc(OCC#N)cc1-n1cc(Cl)c(=O)c(Cl)c1-c1c(F)cc(F)cc1F [Compound 297] | L (L shows the control value of 50% or less) | H (H shows the control value of more than 50%) | H (H shows the control value of more than 50%) | H (H shows the control value of more than 50%) | H (H shows the control value of more than 50%) | – | – | – | – | – | – |
| Cc1ccccc1-c1c(C)c(=O)c(C)cn1-c1ccccc1 [Compound 580] | – | – | – | – | – | H (H shows the control value of more than 50%) | H (H shows the control value of more than 50%) | H (H shows the control value of more than 50%) | H (H shows the control value of more than 50%) | L (L shows the control value of 50% or less) | – |
| O=c1c(Br)cn(-c2ccccc2Br)c(-c2c(F)cc(F)cc2F)c1Br [Compound 44] | – | – | – | – | – | – | – | – | – | – | Test G control value class (grape downy mildew) ([1]; 250 ppm spray): L (L shows the control value of 50% or less); Test E control value class (wheat brown rust) [2, 6]: H (H shows the control value of more than 50%); Test C control value class (cabbage Alternaria sooty spot) [3, 7]: H (H shows the control value of more than 50%); Test B control value class (tomato gray mold) [4, 8]: H (H shows the control value of more than 50%); Test D control value class (barley powdery mildew) [5, 9]: H (H shows the control value of more than 50%) |
| Cc1ccccc1-n1cc(C(F)(F)F)c(=O)c(C)c1-c1c(F)cc(F)cc1F [Compound 184] | – | – | – | – | – | – | – | – | – | – | Test G control value class (grape downy mildew) ([1]; 250 ppm spray): L (L shows the control value of 50% or less); Test E control value class (wheat brown rust) [2, 6]: H (H shows the control value of more than 50%); Test C control value class (cabbage Alternaria sooty spot) [3, 7]: L (L shows the control value of 50% or less); Test B control value class (tomato gray mold) [4, 8]: H (H shows the control value of more than 50%); Test D control value class (barley powdery mildew) [5, 9]: H (H shows the control value of more than 50%) |
| CCc1c(-c2c(F)cc(F)cc2F)n(-c2ccccc2Cl)cc(C)c1=O [Compound 491] | – | – | – | – | – | L (L shows the control value of 50% or less) | H (H shows the control value of more than 50%) | H (H shows the control value of more than 50%) | H (H shows the control value of more than 50%) | H (H shows the control value of more than 50%) | – |
| Cc1c(-c2ccccc2)n(-c2cc(F)ccc2Cl)cc(Br)c1=O [Compound 415] | – | – | – | – | – | H (H shows the control value of more than 50%) | H (H shows the control value of more than 50%) | H (H shows the control value of more than 50%) | H (H shows the control value of more than 50%) | L (L shows the control value of 50% or less) | – |
| Cc1ccc(F)cc1-n1cc(Cl)c(=O)c(Br)c1-c1c(F)cccc1F [Compound 449] | – | – | – | – | – | L (L shows the control value of 50% or less) | H (H shows the control value of more than 50%) | H (H shows the control value of more than 50%) | H (H shows the control value of more than 50%) | L (L shows the control value of 50% or less) | – |
| Cc1ccc(-n2cc(Br)c(=O)c(Br)c2-c2c(F)cc(F)cc2F)c(C)c1 [Compound 257] | L (L shows the control value of 50% or less) | H (H shows the control value of more than 50%) | H (H shows the control value of more than 50%) | H (H shows the control value of more than 50%) | L (L shows the control value of 50% or less) | – | – | – | – | – | – |
| Cc1cc(F)ccc1-c1c(Br)c(=O)c(Br)cn1-c1ccccc1 [Compound 584] | – | – | – | – | – | L (L shows the control value of 50% or less) | H (H shows the control value of more than 50%) | H (H shows the control value of more than 50%) | H (H shows the control value of more than 50%) | L (L shows the control value of 50% or less) | – |
